Laboratory results: PubChem BioAssay AID292 (DTP/NCI, 2004)
Inconclusive results and toxic doses are left out. Not every entry of the source has a single result; some have several. The other results are left out here. The source may hold further records. The records of an entry differ for a reason that is not stated; dose, time, organism, isomer or construct need not be as stated for each record.

Test system: B6C3F1 mice, ip Sarcoma M5076, median survival T/C
Assay: NCI In Vivo Anticancer Drug Screen. Data for tumor model Sarcoma M5076 (intraperitoneal) in B6C3F1 mice
Conditions: endpoint: median survival time, higher = longer survival
Method: The antitumor activity of compounds was measured in mice bearing transplantable tumors. Survival or tumor size were measured and the results are expressed as the measurement made in the treated group (T) divided by the measurement made in the vehicle treated control group (C). The tumor model used in this assay is Sarcoma M5076 (intraperitoneal) in B6C3F1 mice

## CC(C)(C)CCC(Br)CBr (stereo unspecified)
dose: 25.0 mg/kg/injection, schedule: Q04DX004 (ip), vehicle: suspension in saline
  T/C: 95 % of control and 172 % of control

## COc1cc2cc(c1Cl)N(C)C(=O)C[C@H](OC(=O)[C@H](C)N(C)C(C)=O)[C@]1(C)O[C@H]1[C@H](C)[C@@H]1C[C@@](O)(NC(=O)O1)[C@H](OC)C=C/C=C(\C)C2
dose: 150.0 micrograms/kg/injection, schedule: Q04DX005 (ip), vehicle: saline
  T/C: 121 % of control and 159 % of control

## COc1cc2c(c3c1c(=O)c1ccccc1n3C)C=CC(C)(C)O2
dose: 21.6 mg/kg/injection, schedule: Q04DX004 (ip), vehicle: saline with Tween-80
  T/C: 110 % of control and 151 % of control
dose: 36.0 mg/kg/injection, schedule: Q04DX004 (ip), vehicle: saline with Tween-80
  T/C: 110 % of control and 159 % of control
dose: 60.0 mg/kg/injection, schedule: Q04DX004 (ip), vehicle: saline with Tween-80
  T/C: 110 % of control and 165 % of control
dose: 100.0 mg/kg/injection, schedule: Q04DX004 (ip), vehicle: saline with Tween-80
  T/C: 110 % of control and 164 % of control

## CO[C@@]12[C@H](COC(N)=O)C3=C(C(=O)C(C)=C(N)C3=O)N1C[C@@H]1N[C@@H]12
dose: 2.0 mg/kg/injection, schedule: Q04DX004 (ip), vehicle: saline
  T/C: 93 % of control and 176 % of control
dose: 4.0 mg/kg/injection, schedule: Q04DX004 (ip), vehicle: saline
  T/C: 86 % of control and 198 % of control

## CN=NN(C)C(=O)NC
dose: 139.0 mg/kg/injection, schedule: Q04DX004 (ip), vehicle: saline
  T/C: 92 % of control and 183 % of control

## COC(=O)C12OCC34C(CC5C(C)C6=CC(=O)OC6=CC5(C)C3C(O)C1O)OC(=O)C(O)C24 (stereo unspecified)
dose: 0.25 mg/kg/injection, schedule: Q04DX004 (ip), vehicle: Klucel (hydroxypropylcellulose) (HPC)
  T/C: 116 % of control, 119 % of control, 155 % of control

## CCOC(=O)Nc1cc(NC(C)/C(=N/O)c2ccccc2)c([N+](=O)[O-])c(N)n1 (stereo unspecified)
dose: 800.0 mg/kg/injection, schedule: Q04DX004 (ip), vehicle: Klucel (hydroxypropylcellulose) (HPC)
  T/C: 119 % of control and 161 % of control
